From PubChem BioAssay AID588453 (National Center for Advancing Translational Sciences (NCATS), 2011)
About 4,000 (1%) of roughly 390,000 compounds were called active. The inconclusive results got no clear call from the source; some entries with a clear call stand among them for comparison. The call rests on the fitted dose curve; in most records, active means well fitted inhibition curve with a large enough effect; inconclusive means small, poorly fitted or top-dose-only effect; inactive means no such curve, though single readings can be large or run the other way. A potency beside an inconclusive call is a rough fit, not a confirmed value.

The compounds below were run against Thioredoxin reductase 1, cytoplasmic (Rattus norvegicus) (UniProt O89049) (assay: qHTS Assay for Inhibitors of Mammalian Selenoprotein Thioredoxin Reductase 1 (TrxR1): qHTS). Details: recombinant rTrxR1, NADPH fluorescence consumption, selenite substrate; series mostly up to 114 µM; activity change, negative = inhibition: at the top concentration.
In short: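 Rat TrxR1 (90 nM in the dispensed reagent) was pre-reduced with 400 uM NADPH for 5 min at room temperature, then incubated with compound for 15 min. After 400 uM selenite was added, NADPH fluorescence (Ex 340/Em 450 nm) was followed for 8 min.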
Further: nearly all actives have a fitted effect of over 65% in size.
On the % scale 0 is the no-effect control and ±100 the full control effect; potency means the concentration at half of the fitted maximal effect; tags describe the fitted curve by direction and shape.

Sequence of UniProt O89049 (O89049 whole entry, looked up): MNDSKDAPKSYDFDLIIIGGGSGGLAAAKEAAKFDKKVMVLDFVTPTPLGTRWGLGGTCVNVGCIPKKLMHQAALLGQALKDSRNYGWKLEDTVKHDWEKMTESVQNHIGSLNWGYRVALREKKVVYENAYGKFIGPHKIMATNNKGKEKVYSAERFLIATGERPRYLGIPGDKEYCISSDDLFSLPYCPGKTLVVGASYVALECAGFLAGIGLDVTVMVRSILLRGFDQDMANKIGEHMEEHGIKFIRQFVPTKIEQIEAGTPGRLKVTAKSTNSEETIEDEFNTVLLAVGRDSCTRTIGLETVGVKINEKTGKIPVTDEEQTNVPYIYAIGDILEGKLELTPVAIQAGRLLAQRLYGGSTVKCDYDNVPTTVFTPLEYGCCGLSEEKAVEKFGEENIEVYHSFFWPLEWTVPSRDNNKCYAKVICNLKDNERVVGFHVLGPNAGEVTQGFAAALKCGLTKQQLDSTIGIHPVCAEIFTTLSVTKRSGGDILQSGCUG

Structure (SMILES)	Potency	activity change, negative = inhibition
Cc1nnc(SCC2=C(C(=O)O)N3C(=O)C(NC(=O)C(C)n4nc(C(F)(F)F)cc4C)C3SC2)s1 (stereo not given)	inconclusive: 22.4 µM [inhibitor, full curve]	
Cn1c(=O)cc(N2CCCCC2)[nH]c1=O	inconclusive: 25.1 µM [inhibitor, single point]	
O=C(O)C1Nc2c(O)cccc2C2C=CCC12 (stereo not given)	active: 35.5 µM	
CC(C)(C)c1nnc(NC(=S)Nc2ccccc2)s1	inconclusive: 10 µM [inhibitor, partial curve]	
CCN(CC)CCNC(=O)CSc1c2c(nc3cc(Cl)ccc13)CCCC2	inconclusive: 50.1 µM [inhibitor, partial curve]	
CCc1ccc2occ(CC(=O)Nc3c(C(=O)Nc4ccc(C)cc4)oc4ccccc34)c2c1	active: 89.1 µM	
Nc1cccc2nc3ccccc3cc12		inactive: 16%
CCS(=O)(=O)N1CCc2cc(C(=O)Nc3cccc(Cl)c3C)ccc21		inactive: 15.2%
Cc1ccc(S(=O)(=O)N2CCN(c3nc(-n4cccn4)nc4ccccc34)CC2)cc1		inactive: 0.791%
O=C(COc1ccc(F)cc1)Nc1cc(S(=O)(=O)N2CCCCC2)ccc1N1CCCCC1	inconclusive: 89.1 µM [inhibitor, partial curve, poor fit]	
Cc1cc(C)cc(OC(=O)CS(=O)c2ccc(C(F)(F)F)cc2[N+](=O)[O-])c1 (stereo not given)	inconclusive: 35.5 µM [inhibitor, partial curve, poor fit]	
Cc1nnc(NC(=O)C2(c3ccccc3)CCOCC2)s1	inconclusive: 70.8 µM [inhibitor, single point]	
COC(=O)c1ccccc1NC(=O)COC(C)=O	inconclusive: 70.8 µM [inhibitor, single point]	
Cc1ccc(C(C)C)c(OCC(=O)Nc2ccc(C(=O)OC3CCCCC3)cc2)c1		inactive: 11.2%
Cc1nc(-c2cccnc2)sc1C(=O)Nc1ccc(C(F)(F)F)cc1	inconclusive: 70.8 µM [inhibitor, partial curve]	
O=C(/C=C/c1ccco1)NCc1ccccn1	inconclusive: 22.4 µM [inhibitor, full curve, poor fit]	
O=C(CNc1ccccc1)c1ccc([N+](=O)[O-])cc1	inconclusive: 79.4 µM [inhibitor, partial curve, poor fit]	
CCc1nnc(SCc2nc(-c3ccc(OC)c(OC)c3)oc2C)c2cc3sc(C)cc3n12		inactive: 4.37%
COc1cccc(C(=O)NC(=S)Nc2ccc(N3CCCC3)cc2)c1		inactive: -36.8%
O=C1Cc2ccccc2C(=O)N1c1cccc(Cl)c1	inconclusive: 50.1 µM [inhibitor, partial curve, poor fit]	
O=C(NC(=S)Nc1cc([N+](=O)[O-])ccc1O)c1cccnc1		inactive: -18.2%
Cc1c(/C=N/NC(=O)C(NC(=O)c2ccc3c(c2)OCO3)C(C)C)c2ccccc2n1C (stereo not given)	inconclusive: 89.1 µM [inhibitor, single point]	
Cc1ccc(C(=O)Nc2sc3c(c2C#N)CCCCC3)cc1C	inconclusive: 89.1 µM [inhibitor, partial curve, poor fit]	
Cc1ccc(C(=O)CC2(O)C(=O)N(CCc3ccccc3)c3ccc(Cl)cc32)cc1 (stereo not given)		inactive: -9.4%

Structure (SMILES)	Potency	activity change, negative = inhibition
COC(=O)c1ccc(CSc2ncnc3c2sc2nc(N4CCOCC4)c4c(c23)CCCC4)o1	inconclusive: 44.7 µM [inhibitor, single point]	
COC(=O)Nc1c(-c2ccccc2)nc2ccc(Cl)cn12		inactive: 23.1% [at 57.1 µM]
COc1ccc2c(c1)[nH]c1c(N3CCN(Cc4ccc5c(c4)OCO5)CC3)ncnc12		inactive: -6.32%
O=C(O)CCCCCN1C(=O)CCC1=O		inactive: 14.1%
CN(C)c1ccc(/C=C/c2cc(N(C)C)nc3ccccc23)cc1		inactive: 17.5%
Cc1ccc(CN(C)C(=O)c2cc(S(=O)(=O)N3CCOCC3)ccc2F)o1	inconclusive: 56.2 µM [inhibitor, partial curve, poor fit]	
COc1ccc(NC(=S)Nc2ccccc2Cl)cn1	inconclusive: 79.4 µM [inhibitor, partial curve]	
CCOC(=O)C1C(=O)C(C(C)=O)C(=O)CC1CC(C)SCC (stereo not given)	inconclusive: 70.8 µM [inhibitor, single point]	
C=CC#CC[N+]1(CC#Cc2ccccc2)CCOCC1	inconclusive: 28.2 µM [inhibitor, partial curve, poor fit]	
OC(C#Cc1ccccn1)c1cccs1 (stereo not given)	inconclusive: 7.08 µM [inhibitor, single point]	
Cc1cc(S(=O)(=O)Nc2ccc3cn[nH]c3c2)c(C)cc1Cl		inactive: -0.22%
O=c1c(Br)ccc(Br)cc1Br	active: 0.199 µM	
C/C(CC(=O)Nc1ccc2c(c1)OCCO2)=N\NC(=O)c1ccccc1Cl	inconclusive: 50.1 µM [inhibitor, partial curve, poor fit]	
CN(c1ccc([N+](=O)[O-])cc1C(=O)Nc1ccccc1)C1CCCCC1	inconclusive: 22.4 µM [inhibitor, single point]	
N#CC(C#N)=C1C=CC=CN1/C(=C\c1ccco1)C(=O)c1ccccc1	active: 1.58 µM	
NC(=O)c1c(NC(=O)c2ccc(N3C(=O)CCC3=O)cc2)sc2c1CCCC2	inconclusive: 79.4 µM [inhibitor, partial curve]	
COc1ccc(CCNC(=O)COC(=O)c2ccc([N+](=O)[O-])o2)cc1	inconclusive: 50.1 µM [inhibitor, partial curve, poor fit]	
O=C(Nc1ccc(C(=O)N2CCC(N3CCOCC3)CC2)cc1)c1ccc(Br)o1	inconclusive: 70.8 µM [inhibitor, partial curve]	
CC(=O)C1=C(C)N(CC2CC2)C(=O)N[C@H]1c1cccs1		inactive: 3.76% [at 57.1 µM]
CCOc1ccc(NCc2ccccc2OCc2cccc(F)c2)cc1	inconclusive: 22.4 µM [inhibitor, partial curve, poor fit]	
Oc1c(CN2CCOCC2)ccc2ccccc12	inconclusive: 12.6 µM [inhibitor, partial curve]	
COCCN(C(=O)COC(=O)c1cc2c(s1)CCC2)c1c(N)n(Cc2ccccc2)c(=O)[nH]c1=O	inconclusive: 44.7 µM [inhibitor, partial curve]	
N#Cc1nc(-c2ccc(COc3ccccc3)o2)oc1NCc1ccccc1		inactive: 19.3%
CC(=O)C1=C(C)NC(SCC(=O)c2ccccc2)=C(C#N)C1CC(C)C (stereo not given)	inconclusive: 11.2 µM [inhibitor, partial curve, poor fit]	

Structure (SMILES)	Potency	activity change, negative = inhibition
CCCOC(=O)c1c(NC(=O)C2c3ccccc3Oc3ccccc32)sc2c1CCC(C)C2 (stereo not given)		inactive: 32.6%
Cc1sc(NC(=O)c2cccs2)c(C(N)=O)c1C	inconclusive: 20 µM [inhibitor, partial curve, poor fit]	
O=c1cc(/C=C/c2ccccc2)oc2c1ccc1ccccc12	inconclusive: 89.1 µM [inhibitor, single point]	
Cc1ccc(S(=O)(=O)N2CCCN(Cc3nc4ccccc4c(=O)[nH]3)CC2)cc1	inconclusive: 56.2 µM [inhibitor, partial curve, poor fit]	
COCCCNC(=O)[C@H](Cc1c[nH]c2ccccc12)NC(=O)OCc1ccccc1	inconclusive: 89.1 µM [inhibitor, single point]	
O=C(O)/C=C/C(=O)Nc1ccccc1SC(F)(F)F	active: 35.5 µM	
Clc1ccc(-n2nnc(-c3cccnc3Cl)n2)cc1Cl		inactive: 7.84%
C=CCn1c(SCC(=O)c2ccc(CNC(C)=O)o2)nc2scc(C3CC3)c2c1=O	inconclusive: 7.94 µM [inhibitor, full curve]	
CC(C)C(=O)Nc1c(-c2ccccc2F)c(=O)c2ccccc2n1C	inconclusive: 20 µM [inhibitor, partial curve, poor fit]	
COc1cccc(/C(O)=C2/C(=O)C(=O)N(Cc3ccco3)C2c2ccncc2)c1 (stereo not given)	inconclusive: 50.1 µM [inhibitor, partial curve, poor fit]	
O=C(NNC(=S)NC(=O)c1ccc(Br)cc1)c1cccc([N+](=O)[O-])c1	inconclusive: 11.2 µM [inhibitor, full curve, poor fit]	
CCn1ccnc1CN1CCCC(C(=O)c2ccc3c4c(cccc24)CC3)C1 (stereo not given)	inconclusive: 89.1 µM [inhibitor, single point]	
CCN(c1ccc(C)cc1)S(=O)(=O)c1nnc(NC(=O)c2ccco2)s1	active: 56.2 µM	
O=S(=O)(c1ccccc1)c1cc(O)ccc1O	inconclusive: 25.1 µM [inhibitor, partial curve]	
O=C1CC(Sc2cccs2)C(=O)N1c1ccccc1 (stereo not given)	inconclusive: 25.1 µM [inhibitor, single point]	
COc1ccc(-c2nc3cc(NC(=O)Cc4ccc(OC)c(OC)c4)ccc3o2)cc1	inconclusive: 28.2 µM [inhibitor, single point]	
COc1ccc(CCNC(=O)CCCn2c(=O)c3ccccc3n(Cc3ccc(F)cc3Cl)c2=O)cc1OC		inactive: 13.4%
O=C(COC(=O)c1ncc(Cl)c(Cl)c1Cl)NCc1ccccc1	inconclusive: 89.1 µM [inhibitor, single point]	
COc1ccccc1NC(=S)NC1CCC(CC2CCC(NC(=S)Nc3ccccc3OC)CC2)CC1 (stereo not given)		inactive: -3.66%
CC12CCC(=O)N1C(C(=O)NCCc1ccccc1)CS2 (stereo not given)	inconclusive: 89.1 µM [inhibitor, single point]	
C/C(N)=C(/C#N)C(=O)CSc1nc2ccccc2c(=O)n1Cc1ccc(F)cc1		inactive: -0.336%
C=CCN1C(=O)C(Cc2ccc(Br)cc2)S/C1=N\N=C\c1ccco1 (stereo not given)	inconclusive: 15.8 µM [inhibitor, partial curve]	
